From PubChem BioAssay AID624417 (National Center for Advancing Translational Sciences (NCATS), 2012)
Among all 410,000 compounds or so, about 6,400 (1.6%) were called active. Inconclusive means that the source gave no clear call. Such entries were picked first, then a sample of the others. The call rests on the fitted dose curve; in most records, active means well fitted inhibition curve with a large enough effect; inconclusive means small, poorly fitted or top-dose-only effect; inactive means no such curve, though single readings can be large or run the other way. No potency is given beside an inconclusive call; the fits are too rough.

molecular target: Glucagon-like peptide 1 receptor (Homo sapiens) (UniProt P43220); experiment: qHTS of GLP-1 Receptor Inverse Agonists (Inhibition Mode); conditions: HEK293 GLP-1R CRE-luciferase, luminescence, 24 h, GLP-1R form is constitutively active; activity change, negative = inhibition: at 38.3 µM (top of the series) unless noted; further: nearly all actives have a fitted effect of over 55% in size
Outline: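 Assay principle: reduced luminescence from a cAMP-responsive reporter in HEK293 cells co-expressing a constitutively active GLP-1R. Conditions: 24 hr compound incubation, 37 deg C, 5% CO2.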
On the % scale 0 is the no-effect control and ±100 the full control effect; potency means the concentration at half of the fitted maximal effect; tags describe the fitted curve by direction and shape.

Chain of UniProt P43220 (P43220 whole entry, looked up): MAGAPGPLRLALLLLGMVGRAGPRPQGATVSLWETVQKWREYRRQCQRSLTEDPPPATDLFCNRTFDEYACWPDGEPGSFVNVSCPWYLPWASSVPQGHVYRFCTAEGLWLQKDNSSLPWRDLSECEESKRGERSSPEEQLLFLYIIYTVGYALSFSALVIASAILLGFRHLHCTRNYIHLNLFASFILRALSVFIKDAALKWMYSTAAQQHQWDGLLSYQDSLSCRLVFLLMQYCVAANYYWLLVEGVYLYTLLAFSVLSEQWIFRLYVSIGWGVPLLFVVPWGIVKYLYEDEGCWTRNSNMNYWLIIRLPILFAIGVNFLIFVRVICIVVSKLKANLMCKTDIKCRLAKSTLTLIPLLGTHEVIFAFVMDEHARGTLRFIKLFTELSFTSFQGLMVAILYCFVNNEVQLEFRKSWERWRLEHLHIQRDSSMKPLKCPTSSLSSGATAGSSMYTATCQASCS

**Q.** `FC(F)(F)c1ccnc(NCc2ccc(Cl)cc2)n1` was tested. Which Potency did it give?
**A.** The Potency was inconclusive [inhibitor, single point].

**Q.** How did the Potency turn out when `CCc1nc2c(OCc3cc(Cl)cc(Cl)c3)cccn2c1N(C)C(=O)c1ccc(OC)cc1` was run?
**A.** The Potency was inconclusive [inhibitor, single point].

**Q.** For `C=CCn1c(=N)n(CC(O)COc2ccccc2OC)c2ccccc21` (stereo unspecified), which Potency is on record?
**A.** Its Potency is inconclusive [inhibitor, single point].

**Q.** For `Cc1nn(-c2ccccc2)c(Cl)c1/C=N/NC(=O)OC(C)(C)C`, which Potency is on record?
**A.** Its Potency is inconclusive [inhibitor, single point].

**Q.** Which “activity change, negative = inhibition” value does the source give for `CN1CCc2cccc3c2[C@@H]1Cc1ccc(O)c(O)c1-3` here?
**A.** The value was inactive: 56.1%.

**Q.** For `CCN1CCC(CNCc2cn(-c3ccc(OC)cc3)nc2-c2ccccc2Cl)C1` (stereo unspecified), which Potency is on record?
**A.** The Potency was inconclusive [inhibitor, partial curve, poor fit].

**Q.** `O=[N+]([O-])c1ccc(O)c(C=Nc2ccc3c(c2)OCO3)c1` was tested. Which “activity change, negative = inhibition” value did it give?
**A.** The value was inactive: 2.66%.

**Q.** Which Potency does the source give for `CC(C)C[C@H](CO)Nc1nc(N(C)c2cccc(Cl)c2)c2ncn(C(C)C)c2n1` here?
**A.** Its Potency is inconclusive [inhibitor, single point].

**Q.** Which Potency does the source give for `CC(C)CC(C(=O)NCCc1ccccc1)N1Cc2ccccc2C1=O` (stereo unspecified) here?
**A.** The Potency was inconclusive [inhibitor, partial curve, poor fit].

**Q.** How did the Potency turn out when `Cc1nn(C(C)(C)C)c(OC(=O)c2cccc(F)c2)c1Sc1ccccc1` was run?
**A.** The Potency was inconclusive [inhibitor, partial curve, poor fit].

**Q.** Which Potency does the source give for `C=CCn1c(-c2csc(-c3ccc(Cl)cc3)n2)n[nH]c1=S` here?
**A.** Its Potency is inconclusive [inhibitor, full curve, poor fit].

**Q.** Which activity change, negative = inhibition does the source give for `CCOC(=O)CCNCc1ccc(F)cc1` here?
**A.** The activity change, negative = inhibition was inactive: 21.4% [at 7.66 µM].

**Q.** For `O=C(N/N=C/c1ccccn1)c1cc(-c2ccc3ccccc3c2)n[nH]1`, which Potency is on record?
**A.** The Potency was inconclusive [inhibitor, single point].

**Q.** For `CCN(CC(=O)Nc1ccc2c(c1)OCCO2)C(=O)c1ccc(Cl)cc1Cl`, which Potency is on record?
**A.** Its Potency is inconclusive [inhibitor, single point].

**Q.** How did the Potency turn out when `COc1cc(CNC(=O)c2cc(-c3cc(OC)ccc3Cl)n[nH]2)cc(OC)c1` was run?
**A.** Its Potency is inconclusive [inhibitor, single point].

**Q.** `CN(C)c1ccc(/C=N/NC(=O)c2ccn(C)n2)cc1` was tested. Which “activity change, negative = inhibition” value did it give?
**A.** The value was inactive: -25.5%.

**Q.** How did the “activity change, negative = inhibition” value turn out when `COc1ccc(Cl)cc1NC(=O)CSc1nc(-c2ccccc2)c2ccccc2n1` was run?
**A.** Its value is inactive: -11.8%.

**Q.** With `CCCNC(=O)C1(C)CCN(C(=O)c2ccc(OC)cc2OC)C1` (stereo unspecified) as the compound, how does the “activity change, negative = inhibition” value read?
**A.** Its value is inactive: 9.9%.

**Q.** For `O=C(NCc1ccco1)/C(=C\C=C\c1ccccc1)NC(=O)c1ccccc1Br`, which Potency is on record?
**A.** The Potency was inconclusive [inhibitor, single point].

**Q.** How did the Potency turn out when `N#C/C(=C/C=C/c1ccccc1)C(=O)Nc1ccccc1` was run?
**A.** Its Potency is inconclusive [inhibitor, single point].

**Q.** `COc1ccc(CC(=O)N(CC2CCCO2)c2nc3ccccc3s2)cc1` (stereo unspecified) was tested. Which Potency did it give?
**A.** The Potency was inconclusive [inhibitor, partial curve, poor fit].

**Q.** With `O=C(Nc1nc2ccccc2s1)c1cc(-c2ccccc2)nn1-c1ccccc1` as the compound, how does the Potency read?
**A.** The Potency was inconclusive [inhibitor, partial curve, poor fit].

**Q.** How did the Potency turn out when `O=C(CC1C(=O)NCCN1CCCc1ccccc1)NCCc1ccccc1Cl` (stereo unspecified) was run?
**A.** The Potency was inconclusive [inhibitor, single point].

**Q.** `CCc1ccc(S(=O)(=O)N2c3ccc(C)cc3C3CN(C)CCC32)cc1` (stereo unspecified) was tested. Which Potency did it give?
**A.** The Potency was inconclusive [inhibitor, single point].

**Q.** Which Potency does the source give for `CC1(C(=O)Nc2cnc3ccccc3c2)CCN1Cc1ccc(-c2ccccc2)o1` (stereo unspecified) here?
**A.** The Potency was inconclusive [inhibitor, partial curve, poor fit].

**Q.** With `O=C(CN1CCOCC1)Nc1ccccc1-c1ccccc1` as the compound, how does the Potency read?
**A.** Its Potency is inconclusive [inhibitor, partial curve, poor fit].

**Q.** Which “activity change, negative = inhibition” value does the source give for `CCCOc1cccc(C(=O)NC(=S)Nc2cccc(NC(=O)c3ccccc3Cl)c2)c1` here?
**A.** Its value is inactive: 31.6%.

**Q.** With `Cc1ccc(-c2csc(N3CCN(CCCn4c(-c5ccncc5)nc5ccccc54)CC3)n2)cc1` as the compound, how does the Potency read?
**A.** The Potency was inconclusive [inhibitor, partial curve, poor fit].

**Q.** With `O=C(N/N=C/c1ccc(OCC2COCCO2)cc1)c1ccc(Br)cc1` (stereo unspecified) as the compound, how does the Potency read?
**A.** Its Potency is inconclusive [inhibitor, partial curve, poor fit].

**Q.** For `CNC(=S)N/N=C1\CC(c2ccccc2)Oc2ccccc21` (stereo unspecified), which Potency is on record?
**A.** Its Potency is inconclusive [inhibitor, single point].

**Q.** `CC1CCCN(c2ccc(C(=O)NCc3ccccc3)cn2)C1` (stereo unspecified) was tested. Which Potency did it give?
**A.** The Potency was inconclusive [inhibitor, single point].

**Q.** Which “activity change, negative = inhibition” value does the source give for `O=C(CC1SC(=O)N(c2ccccc2)C1=O)Nc1ccccc1` (stereo unspecified) here?
**A.** Its value is inactive: 52.3%.

**Q.** For `O=C(c1ccc(CS(=O)Cc2ccc(Cl)cc2)o1)N1CCN(c2ccccc2)CC1` (stereo unspecified), which Potency is on record?
**A.** Its Potency is inconclusive [inhibitor, full curve, poor fit].

**Q.** How did the Potency turn out when `COc1ccc(CN2C(=O)C(C)Nc3ncnc(N4CCOCC4)c32)cc1` (stereo unspecified) was run?
**A.** Its Potency is inconclusive [inhibitor, partial curve, poor fit].

**Q.** For `CC(C)N(CC#CC(O)(c1ccccc1)c1ccccc1)C(C)C`, which Potency is on record?
**A.** Its Potency is inconclusive [inhibitor, single point].

**Q.** Which Potency does the source give for `CCOc1ccc(N2CC(c3nc4ccccc4n3Cc3cccc(C)c3)CC2=O)cc1` (stereo unspecified) here?
**A.** The Potency was inconclusive [inhibitor, partial curve, poor fit].

**Q.** With `CCc1nc2c(cnn2-c2ccc(Cl)cc2)c(=O)n1-c1ccc(OC)c(Cl)c1` as the compound, how does the “activity change, negative = inhibition” value read?
**A.** The value was inactive: 3.45%.

**Q.** How did the Potency turn out when `O=S(=O)(NCC(c1ccco1)N1CCN(c2ccccc2F)CC1)c1ccc2c(c1)OCCO2` (stereo unspecified) was run?
**A.** The Potency was inconclusive [inhibitor, single point].

**Q.** Which Potency does the source give for `Nc1cc(C(=O)N2CCN(c3cccc(Cl)c3)CC2)ccc1N1CC2CC(C1)c1cccc(=O)n1C2` (stereo unspecified) here?
**A.** The Potency was inconclusive [inhibitor, single point].

**Q.** How did the Potency turn out when `Cc1ccc(CCNC(=O)c2ccc3c(c2)c(C)c(C)n3Cc2ccccc2)cc1` was run?
**A.** The Potency was inconclusive [inhibitor, single point].

**Q.** With `CCOc1ccc(N(CC(=O)N2CC=C(c3ccccc3)CC2)S(=O)(=O)c2c(C)noc2C)cc1` as the compound, how does the Potency read?
**A.** Its Potency is inconclusive [inhibitor, partial curve, poor fit].
